# According to PubChem BioAssay AID588591 (National Center for Advancing Translational Sciences (NCATS), 2011):
# Out of some 390,000 compounds screened, about 4,700 (1.2%) were called active. Another 4% or so got no clear call; they are omitted. Calls come from the whole dose curve; as a rule, active = well fitted inhibition curve with a large enough effect; inconclusive = small, poorly fitted or top-dose-only effect, or another doubt; inactive = no such curve, though single readings can be large or run the other way. The entries are a selection whose mix differs from that of the whole data set. Some compounds were tested as several samples or in several runs, with calls that do not always agree.
# Target: DNA polymerase eta (Homo sapiens) (UniProt Q9Y253)
# Test: qHTS for Inhibitors of Polymerase Eta
# Details: recombinant Pol eta, fluorescent DNA replication assay; series mostly up to 114 µM; activity change, negative = inhibition: at the top concentration
# Procedure, shortened: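 Pol eta at 10 nM preincubated with compounds 15 min at room temperature; reaction started with fluorescent substrate (50 nM final) and read kinetically at 0 and 10 min.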
# % is set by controls: 0 for no effect and ±100 for the full control effect; potency is the fitted concentration of half-maximal effect.
# Chain of UniProt Q9Y253 (Q9Y253 whole entry, looked up): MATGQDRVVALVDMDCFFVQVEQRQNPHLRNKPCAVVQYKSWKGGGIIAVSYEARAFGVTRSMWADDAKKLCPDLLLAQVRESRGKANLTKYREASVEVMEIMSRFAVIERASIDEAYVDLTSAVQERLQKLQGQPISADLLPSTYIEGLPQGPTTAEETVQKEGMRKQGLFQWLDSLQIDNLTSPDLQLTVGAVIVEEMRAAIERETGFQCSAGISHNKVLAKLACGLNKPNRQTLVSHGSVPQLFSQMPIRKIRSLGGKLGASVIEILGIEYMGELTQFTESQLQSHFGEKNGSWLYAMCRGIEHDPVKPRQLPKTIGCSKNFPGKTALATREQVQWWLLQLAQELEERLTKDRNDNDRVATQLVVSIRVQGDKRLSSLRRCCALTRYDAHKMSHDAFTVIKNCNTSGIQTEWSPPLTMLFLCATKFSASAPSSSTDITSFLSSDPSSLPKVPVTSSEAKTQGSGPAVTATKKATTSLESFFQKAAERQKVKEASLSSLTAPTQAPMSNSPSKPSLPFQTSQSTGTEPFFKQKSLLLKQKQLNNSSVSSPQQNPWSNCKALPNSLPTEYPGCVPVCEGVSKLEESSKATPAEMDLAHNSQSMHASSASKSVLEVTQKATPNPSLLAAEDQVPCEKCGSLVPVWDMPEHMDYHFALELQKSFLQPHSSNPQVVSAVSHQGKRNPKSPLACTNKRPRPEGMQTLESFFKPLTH
Structure (SMILES),"activity change, negative = inhibition",Potency
O=C(CSc1nnc2ccc(-c3ccccn3)nn12)NCC1CCCO1 (stereo not given),inactive: 43.5%,
CCCCCCN1C[C@@H](n2cc(-c3ccc(F)cc3)nn2)[C@H](O)C[C@@H]1c1ccc(Cl)cc1,inactive: -23.2%,
CN(CCC#N)C(=O)COC(=O)c1c2c(nc3ccccc13)/C(=C\c1ccco1)CC2,,active: 11.2 µM
CC(=O)c1c(C)oc(C)c1CSCc1ccc(C(=O)O)o1,,active: 6.31 µM
CCc1ccc(-c2cc(C)no2)cc1S(=O)(=O)Nc1ccc(Cl)cn1,inactive: 11.1%,
C/C=C/C=C\C(=O)Nc1cccc(C2=NOC3(C2)C[C@H](C(N)=O)N(C(=O)CC#N)C3)c1 (stereo not given in full),,active: 44.7 µM
CCOC(=O)c1c(S(=O)(=O)NCC(=O)NCc2ccccc2)c(C)n(C)c1C,inactive: -3.1%,
O=C(CCc1nnc2ccc(NCc3ccco3)nn12)Nc1ccccn1,,active: 28.2 µM
O=c1cc2oc3cc(O)c(O)cc3c(-c3ccccc3[N+](=O)[O-])c-2cc1O,,active: 0.794 µM
CC(C)(C)OC(=O)N1CCC[C@H]1C(=O)N/N=C/c1cccc2nccnc12,inactive: 30.9%,
Cc1c(-n2c(SCC(=O)O)nnc2-c2ccccc2Br)c(=O)n(-c2ccccc2)n1C,inactive: 47.8%,
Cc1cc2nncn2c2ccccc12,inactive: -13.4%,
CCN1CCN(Cc2ccc(NC(=O)c3ccc(C)c(NC(=O)N4CCNC4=O)c3)cc2C(F)(F)F)CC1,,inactive
COC(=O)/C=C1\SC(=Nc2ccc(Cl)c(Cl)c2)NC1=O,inactive: -12.6%,
CCN(CC(=O)NCCC1=CCCCC1)S(=O)(=O)c1ccccc1,inactive: 32.3%,
CC1(C)CC(=O)C2=C(C1)N(CCN1CCOCC1)C1=C(C(=O)CC(C)(C)C1)C2c1cccc(F)c1,inactive: 2.1%,
CC1=NOC(=O)/C1=C\c1ccc(-c2ccc(Cl)cc2Cl)o1,,active: 14.1 µM
CCC(=O)Nc1c(C#N)c2nc3ccccc3nc2n1-c1ccc(C)cc1,inactive: 45.9%,
O=C(O)c1ccc(N2CCCC2=O)cc1,inactive: 7.8%,
CC1=NN(c2ccccc2)C(=O)C1/C=C1/NC(=S)NC1=O (stereo not given),inactive: 4.87%,
CCOC(=O)c1cc2c(=O)n3cccc(C)c3nc2n(Cc2ccco2)c1=NC(=O)c1ccccc1,inactive: 14.7%,
CCOC(=O)N1CCN(c2ncnc3c2[nH]c2ccc(F)cc23)CC1,inactive: -8.84%,
CCOc1ccc(-n2nc(CO)c(C(=O)NCc3ccc(Cl)cc3)n2)cc1,inactive: 15.1%,

Structure (SMILES),"activity change, negative = inhibition",Potency
Cc1cc(-c2n[nH]c(=S)n2/N=C/c2ccco2)n[nH]1,inactive: 31.1%,
C[C@H]1CN([C@@H](C)CO)C(=O)c2cccc(NC(=O)Nc3ccc(C(F)(F)F)cc3)c2O[C@@H]1CN(C)S(=O)(=O)c1ccccc1,inactive: -16.1%,
COc1ccccc1CC(=O)Nc1cccc(C(=O)Nc2nccs2)c1,inactive: 24.2%,
O=C(CC1CS(=O)(=O)CC1CC(=O)Nc1ccc2c(c1)OCCO2)Nc1ccc2c(c1)OCCO2 (stereo not given),inactive: 32.9%,
CCCCCCN1C[C@H](n2cc(-c3ccc(F)cc3)nn2)[C@@H](O)C[C@@H]1c1ccccc1,inactive: -16%,
NNc1cc([N+](=O)[O-])cc2c1C(=O)N(Cc1ccccc1)S2=O (stereo not given),,active: 44.7 µM
CCOC(=O)c1ccccc1NC(=O)c1ccc2c(SCC(=O)O)c3c(nc2c1)CCCC3,,active: 50.1 µM
O=C(Nc1nnc(S(=O)(=O)N2CCCCCC2)s1)c1cccc(Br)c1,inactive: -3.69%,
Cc1ccccc1N1C(=O)N(c2cccc(C(F)(F)F)c2)C2CS(=O)(=O)CC21 (stereo not given),inactive: -3%,
CCc1nnc2c(Nc3cccc(C(C)=O)c3)nc3ccccc3n12,inactive: 17.6%,
CCN1C(=O)[C@H]2[C@@H](c3ccc(-c4ccc(C(C)=O)cc4)c(OC)c3)N3CCCC[C@@]3(C(=O)OC)[C@H]2C1=O,inactive: -10.1%,
COc1cc(Cl)c(C)cc1NC(=O)c1ccc2c(SCC(=O)O)c3c(nc2c1)CCCC3,inactive: -15.9%,
CN1CCN(c2ccc([N+](=O)[O-])cc2C(=O)N2CCOCC2)CC1,inactive: 1.31%,
Cc1ccc([C@H]2C(C#N)=C(N)Oc3cc(C)oc(=O)c32)o1,inactive: -22.4%,
COc1cc(/C=C(/C#N)c2nc3ccccc3[nH]2)ccc1OC(=O)c1ccco1,inactive: -6.6%,
O=C(O)c1ccc(CSc2n[nH]c(-c3ccco3)n2)cc1,,active: 11.2 µM
Cc1ccc(-c2ccc(=O)n(Cc3cc(C)ccc3C)n2)cc1,inactive: -18.7%,
CC(=O)Oc1cc(C(=O)OCC(=O)NC23CC4CC(CC(C4)C2)C3)cc(OC(C)=O)c1OC(C)=O,,active: 3.16 µM
COC(=O)COc1ccc(C2Nc3c(Cl)ccc(C(=O)O)c3C3C=CCC32)cc1 (stereo not given),,active: 28.2 µM
O=C(CN1C(=O)COc2ccc(S(=O)(=O)N3CCCCCC3)cc21)NCc1ccc(F)cc1,inactive: -17.5%,
O=C(CSc1ncn(-c2ccccc2)n1)N1CCN(c2ccccc2)CC1,inactive: 10.7%,
CSc1nc(N(C)CCO)c2sc3nc(-c4ccco4)c4c(c3c2n1)CCC4,,active: 8.91 µM
